# Results published in PubChem BioAssay AID485360 (National Center for Advancing Translational Sciences (NCATS), 2010).
# The campaign covered roughly 230,000 compounds. About 1,500 (0.65%) were called active. This list was built around the results that the source calls inconclusive (neither active nor inactive); the mix of calls is not that of the screen. The call rests on the fitted dose curve; in most records, active means well fitted inhibition curve with a large enough effect; inconclusive means small, poorly fitted or top-dose-only effect; inactive means no such curve, though single readings can be large or run the other way. Potencies beside an inconclusive call are fits to weak or partial responses and may not hold up.
# Target: Lethal(3)malignant brain tumor-like protein 1 (Homo sapiens) (UniProt Q9Y468)
# Sequence of UniProt Q9Y468 (Q9Y468 whole entry, looked up): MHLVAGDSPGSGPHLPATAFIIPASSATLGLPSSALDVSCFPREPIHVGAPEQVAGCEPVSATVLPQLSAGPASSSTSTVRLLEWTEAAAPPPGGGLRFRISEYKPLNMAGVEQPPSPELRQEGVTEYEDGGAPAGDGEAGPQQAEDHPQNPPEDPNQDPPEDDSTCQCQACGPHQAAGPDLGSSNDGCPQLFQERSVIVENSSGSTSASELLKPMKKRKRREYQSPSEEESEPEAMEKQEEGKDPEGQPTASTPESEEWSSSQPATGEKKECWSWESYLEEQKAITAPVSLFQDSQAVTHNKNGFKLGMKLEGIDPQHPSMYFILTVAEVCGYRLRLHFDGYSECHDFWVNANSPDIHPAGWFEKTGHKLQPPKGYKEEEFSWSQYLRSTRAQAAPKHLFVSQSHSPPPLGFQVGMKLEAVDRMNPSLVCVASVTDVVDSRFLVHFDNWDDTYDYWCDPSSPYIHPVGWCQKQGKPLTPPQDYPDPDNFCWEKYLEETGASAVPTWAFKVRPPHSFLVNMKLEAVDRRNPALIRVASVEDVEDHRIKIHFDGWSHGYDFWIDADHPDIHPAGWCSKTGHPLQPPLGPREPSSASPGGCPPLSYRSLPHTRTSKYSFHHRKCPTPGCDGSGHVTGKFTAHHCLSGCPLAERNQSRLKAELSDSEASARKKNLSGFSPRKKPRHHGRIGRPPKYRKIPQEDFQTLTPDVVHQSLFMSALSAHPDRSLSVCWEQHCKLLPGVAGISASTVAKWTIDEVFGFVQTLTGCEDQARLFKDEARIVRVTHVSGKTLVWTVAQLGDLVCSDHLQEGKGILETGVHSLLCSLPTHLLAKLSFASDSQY
# Assay: qHTS Assay for the Inhibitors of L3MBTL1; further: nearly all actives have a fitted effect of over 60% in size
# Settings: AlphaScreen L3MBTL1–H3K9me1 peptide binding; activity, negative = inhibition: at 57.1 µM (top of the series)
# Outline: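 First, the protein-peptide complex forms for 30 min at room temperature (L3MBTL1 50 nM, biotinylated H3K9me1 peptide 75 nM). Next, compounds are pin-transferred and incubated 30 min. Finally, AlphaScreen beads are added and read after 30 min.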
# On the % scale 0 is the no-effect control and ±100 the full control effect; potency means the concentration at half of the fitted maximal effect; tags describe the fitted curve by direction and shape.
SMILES,Potency,"activity, negative = inhibition"
Cc1ccc(N2C(=O)NC(=O)/C(=C\C=C\c3ccco3)C2=O)cc1C,"inconclusive: 22.4 µM [inhibitor, partial curve, poor fit]",
Nc1nnc(CCN2CCCCC2)s1,"inconclusive: 11.2 µM [inhibitor, partial curve]",
COC(=O)C1=C(c2ccc3ccccc3c2)C[C@@H]2CC[C@H]1N2C(=O)NCCO,,inactive: 11.1%
COc1cc(OC)c(/C=C2\C(=O)Nc3ccccc32)c(OC)c1,"inconclusive: 39.8 µM [inhibitor, single point]",
Brc1cccc(CNCCc2ccc3c(c2)OCO3)c1,,inactive: -1.22%
CNC(=O)OCCc1n(C)cc[n+]1C,,inactive: 8.72%
CCN(CC)c1ccc(CC2C(=O)N(C)C(=O)N(C)C2=O)cc1,"inconclusive: 12.6 µM [inhibitor, partial curve]",
CCOC(=O)C1CCN(/C=C2/C(=O)NC(=O)N(c3cccc(C)c3C)C2=O)CC1,,inactive: 26.9%
O=C1C(Cl)=C(N2CCOCC2)C(=O)N1c1ccccc1F,"inconclusive: 3.98 µM [inhibitor, single point]",
O=C(O)CCCCC1SCC2NC(=O)NC21 (configuration not stated),"inconclusive: 0.355 µM [inhibitor, full curve, poor fit]",
CCOC(=O)C1(CCOc2ccccc2)CCN(Cc2cccc(O)c2)CC1,,inactive: -3.41%
Cc1cc(/C=C2\C(=O)NC(=O)N(Cc3ccco3)C2=O)c(C)n1-c1ccc(C(=O)O)cc1,active: 28.2 µM,
CCN(CC)c1ccc(/C=C2/C(=O)NC(=O)N(Cc3ccco3)C2=O)cc1,"inconclusive: 20 µM [inhibitor, partial curve]",
CCn1nc(-c2ccccc2)nc2c(=O)n(C)c(=O)nc1-2,active: 0.708 µM,
Cc1cc(C(C#N)c2ccc(Cl)cc2)c(Cl)cc1NC(=O)c1cc(I)cc(I)c1O (configuration not stated),"inconclusive: 39.8 µM [inhibitor, single point]",
CN1C(=O)C(C2c3ccccc3C(=O)N2Cc2ccc([N+](=O)[O-])cc2)C(=O)N(C)C1=O (configuration not stated),,inactive: 6.56%
C/C(=C/C=C/[C@@H](C)C(=O)O)[C@H]1CN[C@H](C(=O)O)[C@H]1CC(=O)O,,inconclusive: -74.2% [inhibitor]
CN(C(=O)Oc1ccc(Cl)c2cccnc12)c1ccccc1,,inactive: 2.71%
Cc1c(C(c2ccc(O)cc2)c2c(O)c3ccccc3oc2=O)c(=O)n(-c2ccccc2)n1C (configuration not stated),,inactive: 2.09%
COc1cc2c(C(=O)O)c(C)n(C)c2cc1Br,"inconclusive: 44.7 µM [inhibitor, partial curve, poor fit]",
O=C1Nc2ccccc2/C1=C/c1cnc[nH]1,,inactive: -3.12%
COc1ccc(C2N(c3cc(C)on3)C(=O)C3CCCN32)cc1 (configuration not stated),,inactive: 0.398%
Cn1cc(C(O)CN2CCCCC2)c2ccccc21 (configuration not stated),"inconclusive: 5.62 µM [inhibitor, single point]",
COCCNC(=O)CN1C2CCC1CC(O)(c1cccnc1)C2 (configuration not stated),,inactive: -0.317%

SMILES,Potency,"activity, negative = inhibition"
O=c1c2cc(Br)ccc2[nH]c(=S)n1-c1ccccc1,"inconclusive: 0.355 µM [inhibitor, full curve]",
CCCCCCN1CCN(c2ccc(Cl)cc2)CC1,,inactive: 7.26%
Nc1nonc1C(=O)N/N=C/c1ccc([N+](=O)[O-])o1,active: 35.5 µM,
COc1ccc(/C=C/C(=O)NC(=S)N2C[C@H]3C[C@H](C2)c2cccc(=O)n2C3)cc1,,inactive: 10.2%
Cc1ccc2c(c1N)C(=O)c1ccccc1C2=O,"inconclusive: 39.8 µM [inhibitor, single point]",
O=C1NC(=O)C(=Cc2ccc(Oc3ccc([N+](=O)[O-])cc3)cc2)C(=O)N1,"inconclusive: 39.8 µM [inhibitor, single point]",
COC(=O)C1=C(c2cccc(OCc3ccccc3)c2)C[C@@H]2CC[C@H]1N2C(=O)NCc1ccc(N(C)C)cc1,"inconclusive: 25.1 µM [inhibitor, single point]",
Cn1c(O)c(C=NCCCN2CCCC2=O)c(=O)n(C)c1=O,,inactive: 2.21%
CN1CCC2(CC1)NC(=O)C1=C(CN(C)CC1)N2,active: 28.2 µM,
CCCCc1ncc(CN2CCCC(C(=O)c3ccc(SC)cc3)C2)[nH]1 (configuration not stated),"inconclusive: 17.8 µM [inhibitor, single point]",
c1ccc(CCn2nnnc2CN2CCC(n3nnc4ccccc43)CC2)cc1,,inactive: 8.57%
CC(C)c1ccc(N=Cc2c(O)n(C3CC3)c(=S)[nH]c2=O)cc1,,inactive: -1.55%
Cc1ccccc1-n1c(O)c(/C=N/NC(=O)c2ccccc2O)c(=O)[nH]c1=S,"inconclusive: 25.1 µM [inhibitor, single point]",
CCC(C#N)(CC)P(=S)(c1ccccc1)c1ccccc1,,inactive: 22.6%
Nc1ccc(C2(c3ccc(N)cc3)CCCCC2)cc1,"inconclusive: 7.08 µM [inhibitor, single point]",
CCOC(=O)c1c(C)n(CCN2CCN(C)CC2)c2ccc(OC)cc12,,inactive: -2.1%
CCn1ncc(-c2ccnc3cc(C(=O)O)nn23)c1C,active: 15.8 µM,
c1ccc(Nc2ccc(Nc3ccccc3)cc2)cc1,"inconclusive: 35.5 µM [inhibitor, single point]",
CN(C)c1ccc(-[n+]2c(-c3ccccc3)cc(-c3ccccc3)cc2-c2ccccc2)cc1,"inconclusive: 17.8 µM [inhibitor, partial curve]",
CC(=O)c1ccc2c(c1)C1C(Cl)C(Sc3ccccc3[N+](=O)[O-])CC1C(C(=O)O)N2 (configuration not stated),active: 3.98 µM,
O=C(O)c1ccc2c(c1)C1C(Cl)C(Sc3ccccc3[N+](=O)[O-])CC1C(c1cccc([N+](=O)[O-])c1)N2 (configuration not stated),active: 22.4 µM,
CC/C(=N\N1CCN(C)CC1)c1c(O)[nH]c(=O)[nH]c1=O,"inconclusive: 7.08 µM [inhibitor, single point]",
Cc1ccc(/C=C2\C(=O)NC(=S)N(c3ccccc3F)C2=O)s1,"inconclusive: 39.8 µM [inhibitor, single point]",
Cc1ccc(S(=O)(=O)NCCC(=O)Nc2ccc(Cl)cc2C(=O)c2ccccc2)cc1,,inactive: -15.2%

SMILES,Potency,"activity, negative = inhibition"
O=c1c2ccccc2nc(/C=C/c2ccc([N+](=O)[O-])o2)n1-c1ccc(O)cc1,"inconclusive: 35.5 µM [inhibitor, partial curve]",
CN1/C(=C\C=C\C2=[N+](C)c3ccc4ccccc4c3C2(C)C)C(C)(C)c2ccccc21,active: 15.8 µM,
COc1ccc(S(=O)(=O)N2CCOCC2)cc1NC(=O)COC(=O)Cc1ccccc1,,inactive: 1.74%
CCC(=NCc1ccco1)c1c(O)n(-c2ccc(C)cc2)c(=O)[nH]c1=O,,inactive: -4.26%
O=c1[nH]c(O)c(C=Nc2ccccc2[N+](=O)[O-])c(=O)[nH]1,"inconclusive: 8.91 µM [inhibitor, partial curve]",
COCCNC(=O)c1ccc(N2CC3CC(C2)c2cccc(=O)n2C3)c([N+](=O)[O-])c1 (configuration not stated),"inconclusive: 0.708 µM [inhibitor, partial curve, poor fit]",
COc1ccc(NC(c2ccccc2F)P(=O)(Oc2ccccc2)Oc2ccccc2)cc1 (configuration not stated),"inconclusive: 8.91 µM [inhibitor, partial curve]",
Cc1cccc(N2C(=O)NC(=O)/C(=C\C=C\c3ccco3)C2=O)c1,"inconclusive: 31.6 µM [inhibitor, single point]",
CCOc1cc(CNCCc2c[nH]c3ccccc23)cc(Cl)c1OC,"inconclusive: 25.1 µM [inhibitor, single point]",
COc1ccc2[nH]cc(CCN(C)C)c2c1,"inconclusive: 31.6 µM [inhibitor, single point]",
Cc1ccc(N2C(=O)NC(=O)/C(=C\c3ccc([N+](=O)[O-])o3)C2=O)cc1,active: 3.55 µM,
c1cncc(C2CC(c3cccs3)n3ncnc3N2)c1 (configuration not stated),"inconclusive: 0.708 µM [inhibitor, single point]",
COc1ccc(N2CC2c2ccncc2)cc1 (configuration not stated),"inconclusive: 0.126 µM [inhibitor, full curve, poor fit]",
COc1cc(OC)cc(C(=O)N2CCC(N3CCN(c4ccccc4)CC3)CC2)c1,"inconclusive: 6.31 µM [inhibitor, single point]",
CCN1CCN(Cc2cc(OC)c(OC)cc2[N+](=O)[O-])CC1,"inconclusive: 39.8 µM [inhibitor, single point]",
CN1C(=O)C(Cc2ccsc2)C(=O)N(C)C1=O,"inconclusive: 35.5 µM [inhibitor, single point]",
CN1CCN(c2ccc(F)cc2N)CC1,"inconclusive: 50.1 µM [inhibitor, partial curve, poor fit]",
CCN(CC)C(=O)c1ccc(NC(=O)Cn2nc(C)c3ccccc3c2=O)cc1,"inconclusive: 2.51 µM [inhibitor, single point]",
O=C1NC(=O)N(c2ccc3c(c2)OCO3)C(=O)/C1=C\c1ccc(-c2ccccc2C(=O)O)o1,"inconclusive: 25.1 µM [inhibitor, single point]",
CC(C)C[C@H]1C(=O)N2CCCC2[C@]2(O)O[C@](NC(=O)[C@@H]3C=C4c5cccc6[nH]cc(c56)CC4N(C)C3)(C(C)C)C(=O)N12 (some centres not stated),,inconclusive: -37.2% [inhibitor]
O=[N+]([O-])c1ccc(N2CCCCCC2)c2ncccc12,"inconclusive: 3.55 µM [inhibitor, full curve]",
CCOc1ccc(-n2c(O)c(N=Nc3c(C)n(C)n(-c4ccccc4)c3=O)c(=O)[nH]c2=O)cc1,active: 25.1 µM,
CCn1c(NN=O)nc2ccccc21,"inconclusive: 25.1 µM [inhibitor, partial curve]",
COc1cc2c(cc1O)C[C@H]1NCCc3cc4c(c-2c31)OCO4,active: 35.5 µM,
